# Measured values reported in PubChem BioAssay (Tox21).
# Values joined by “and” are separate entries in the source; they are usually repeats but may differ in a detail not shown here. Identical values can stand only once. Inconclusive means that the source gave no clear call. Such entries were picked first, then a sample of the others. For part of these data: Potencies beside an inconclusive call are fits to weak or partial responses and may not hold up. Active and inactive are the calls of the source. Unless noted, calls come from the whole dose curve; as a rule, active = well fitted curve in the direction sought with a large enough effect in the repeat runs; inconclusive = weak or mixed curves; inactive = no such curve, though single readings can be large; an effect the other way counts as inactive or inconclusive.
# What was measured:
# [1] = qHTS RealTime-Glo MT Cell Viability Assay in HEK293 cells - 24 hour (AID 1224886); settings: RealTime-Glo luminescence; series mostly up to 76.8 µM; note: nearly all actives have a fitted effect of over 50% in size; note: potency is the fitted concentration of half-maximal effect
# Outline: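 Tox21 10K qHTS, HEK293, 600 cells/well, RealTime-Glo reagent co-dispensed with cells; 5 h preincubation, compound by pintool, 37 C, luminescence at 0–40 h.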
# [2] = qHTS assay to identify small molecule antagonists of the sonic hedgehog signaling (Shh) pathway (AID 1259369; calls by dose curve; note: nearly all actives have a fitted effect of over 45% in size; note: potency is the fitted concentration of half-maximal effect); settings: NIH/3T3 Gli1-Luc reporter, Shh antagonist, luminescence 24 h; series mostly up to 92.4 µM
# Outline: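 NIH/3T3-derived 3T3Gli1-Luc cells with stably integrated Gli1-Luc reporter were preincubated 4hr at 37 C, then given compounds in DMSO plus Shh conditioned medium and incubated 24hr. Firefly luciferase luminescence read after 30min reagent at room temperature.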
# [3] = biological target: Estrogen receptor beta (Homo sapiens) (UniProt Q92731); assay: qHTS assay to identify small molecule antagonists of the estrogen receptor beta (ER-beta) signaling pathway (AID 1259378; active = well fitted inhibition curve with a large enough effect in the signal ratio in the repeat runs, not every such curve was filed as active; inconclusive = weak or mixed curves, or effect the other way; inactive = no such curve, though single readings can be large or run the other way; the % refers to the signal ratio; note: potency is the fitted concentration of half-maximal effect; for activity, negative = inhibition: % is set by controls: 0 for no effect and ±100 for the full control effect); settings: ER-beta-UAS-bla HEK293T, beta-lactamase FRET ratio, 16 h; activity, negative = inhibition: at 92.4 µM (top of the series) unless noted
# Outline: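 Antagonist mode: compounds added to beta-lactamase reporter HEK293T ER-beta-UAS cells stimulated with E2 (1nM final), 16 hr at 37C. LiveBLAzer B/G FRET substrate, 2 hours room temperature, fluorescence read-out.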
# [4] = qHTS RealTime-Glo MT Cell Viability Assay in HEK293 cells - 8 hour (AID 1224887); settings: RealTime-Glo luminescence; series mostly up to 76.8 µM; note: top concentration of the series differs between compounds; % is set by controls: 0 for no effect and ±100 for the full control effect; nearly all actives have a fitted effect of over 50% in size
# Outline: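 HEK293 cells mixed with RealTime-Glo reagents (NanoLuc plus cell-permeant prosubstrate) at 600 cells/well, preincubated 5 h at 37 C/5% CO2, then given 23 nL compound in DMSO. Nonlytic luminescence from viable cells was read at 0, 8, 16, 24, 32 and 40 h.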
# [5] = A CellTox Green Cytotoxicity Assay to monitor cytotoxicity in HEK293 cells - 16 hour (AID 1224888); settings: CellTox Green fluorescence; series mostly up to 76.8 µM; note: potency is the fitted concentration of half-maximal effect; nearly all actives have a fitted effect of over 35% in size
# Outline: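 HEK293 cells premixed with CellTox Green dye were seeded at 600 cells/well and left 5 h at 37 C/5% CO2 before pin transfer of 23 nL compound in DMSO. Fluorescence from dye bound to dead-cell DNA was read during 40 h treatment.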
# [6] = biological target: Estrogen receptor beta (Homo sapiens) (UniProt Q92731); assay: qHTS assay to identify small molecule agonists of the estrogen receptor beta (ER-beta) signaling pathway (AID 1259377; active = well fitted activation curve with a large enough effect in the signal ratio in the repeat runs, not every such curve was filed as active; inconclusive = weak or mixed curves, or effect the other way; the % refers to the signal ratio; note: potency is the fitted concentration of half-maximal effect; for activation: % is set by controls: 0 for no effect and ±100 for the full control effect); settings: ER-beta-UAS-bla HEK293T, beta-lactamase FRET ratio, 16 h; activation: at 92.4 µM (top of the series) unless noted
# Outline: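 Screening used GripTite ER-beta-UAS-bla cells held in 2% charcoal-stripped FBS medium. After overnight (16 hr) compound incubation at 37C, beta-lactamase activity was detected with a FRET substrate by fluorescence.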
# [7] = qHTS assay to identify small molecule antagonists of the sonic hedgehog signaling (Shh) pathway - cell viability counter screen (AID 1259367); settings: NIH/3T3 Gli1-Luc viability, CellTiter-Fluor, 24 h; series mostly up to 92.4 µM; note: potency is the fitted concentration of half-maximal effect; nearly all actives have a fitted effect of over 55% in size
# Outline: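 Cells: 3T3 Gli1-Luc, 2,000/well, 4 hr pre-incubation. Compounds in DMSO, then conditioned medium. Incubation 24 hr, 37C, 5% CO2. CellTiter-Fluor at 23 hr, 1 hr, fluorescence.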
# [8] = qHTS assay to identify small molecule agonists of the androgen receptor (AR) signaling pathway in the presence of an antagonist - cell viability counter screen (AID 1259379); settings: MDA-kb2 viability, CellTiter-Fluor, 16 h; series mostly up to 92.4 µM;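 note: MDA-kb2 human breast cancer cells carrying an MMTV luciferase reporter; % is set by controls: 0 for no effect and ±100 for the full control effect; nearly all actives have a fitted effect of over 25% in size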
# Outline: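 MDA-kb2 human breast carcinoma cells (stable MMTV-luciferase, AR/GR responsive) were seeded 3,000 cells/well, pre-incubated 5 hr at 37C without CO2, then given 3.0uM nilutamide and compounds at 15 concentrations for 16 hr. Viability was read by CellTiter-Fluor fluorescence.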
# Tags give direction and shape of the fitted curve or compound fluorescence and quenching.
# Sequence of UniProt Q92731 (Q92731 whole entry, looked up): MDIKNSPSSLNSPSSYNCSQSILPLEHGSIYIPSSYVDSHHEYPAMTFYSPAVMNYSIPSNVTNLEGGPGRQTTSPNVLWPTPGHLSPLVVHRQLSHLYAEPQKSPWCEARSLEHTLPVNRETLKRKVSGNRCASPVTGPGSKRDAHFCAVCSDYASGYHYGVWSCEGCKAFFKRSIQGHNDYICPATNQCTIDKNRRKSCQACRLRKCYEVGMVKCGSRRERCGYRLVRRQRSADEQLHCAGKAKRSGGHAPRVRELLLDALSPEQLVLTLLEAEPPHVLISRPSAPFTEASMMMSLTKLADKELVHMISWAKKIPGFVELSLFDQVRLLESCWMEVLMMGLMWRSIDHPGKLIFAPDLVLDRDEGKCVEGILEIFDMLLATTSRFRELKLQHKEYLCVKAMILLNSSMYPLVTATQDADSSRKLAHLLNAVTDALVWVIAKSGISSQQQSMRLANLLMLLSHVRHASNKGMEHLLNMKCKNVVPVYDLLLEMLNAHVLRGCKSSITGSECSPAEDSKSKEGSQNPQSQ
smiles,measurement,setting,value
C=CCN1C[C@H](C)N([C@H](c2ccc(C(=O)N(CC)CC)cc2)c2cccc(OC)c2)C[C@H]1C,Potency,[1],"inconclusive: 19 µM [cytotoxic, partial curve]"
same,Potency,[2],inactive
CC(C)(C)c1ccc(OP(=O)(Oc2ccccc2)Oc2ccccc2)cc1,Potency,[1],"inconclusive: 49.3 µM [cytotoxic, partial curve]"
same,Potency,[2],"inconclusive: 4.89 µM [inhibitor, full curve, poor fit]"
same,Potency,[3],"inconclusive: 34.6 µM [rising, partial curve]"
Clc1ccc(C(Cl)(Cl)Cl)cn1,Potency,[4],inactive
same,Potency,[5],"inconclusive: 30.9 µM [activator, partial curve, poor fit]"
Clc1ccc(-c2ccc(Cl)c(Cl)c2Cl)c(Cl)c1Cl,Potency,[1],"inconclusive: 58.7 µM [cytotoxic, partial curve, poor fit]"
same,Potency,[6],"inconclusive: 65.3 µM [rising, partial curve, poor fit]"
same,"activity, negative = inhibition",[3],inconclusive: 8.86%
CC(C)c1ccc(OP(=O)(Oc2ccc(C(C)C)cc2)Oc2ccc(C(C)C)cc2)cc1,Potency,[1],"inactive and inconclusive: 19.5 µM [cytotoxic, full curve] and inconclusive: 24.5 µM [cytotoxic, partial curve]"
same,Potency,[7],"inconclusive: 68.6 µM [cytotoxic, partial curve, poor fit] and inconclusive: 68.5 µM [cytotoxic, single point]"
O=C(NC(=O)c1c(F)cccc1F)Nc1cc(Cl)c(OC(F)(F)C(F)F)c(Cl)c1,Potency,[1],inactive
same,activation,[6],inconclusive: 6.3%
same,Potency,[8],inactive
